The source of these data is PMC9911399, “Two distinct binding modes provide the RNA-binding protein RbFox with extraordinary sequence specificity”.

Positions count from the first letter of the chain named. The list shows a part of the results.

To fix the notation:
T1: RBFOX1 RRM (Homo sapiens, UniProt Q9NWB1 109-208)
T1 sequence: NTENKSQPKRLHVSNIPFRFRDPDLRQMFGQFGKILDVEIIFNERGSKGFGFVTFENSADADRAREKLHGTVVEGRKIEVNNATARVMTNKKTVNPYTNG

B1: AUCGUAA (DNA:RNA)
RNA: GGGAGACCGGAAUUCAGAUUGUCCAUCGUAAUUAAAUCCCGUCGUAGCCACCA
DNA 1: CAATCTGAATTCCGGTCTCCC
DNA 2: TGGTGGCTACGACGGGATT
B2: CAGCAAU (DNA:RNA)
RNA: B1 RNA with A25C, U26A, C27G, G28C, U29A, A31U
DNA 1: CAATCTGAATTCCGGTCTCCC
DNA 2: TGGTGGCTACGACGGGATT
B3: UUCGAGA (DNA:RNA)
RNA: B1 RNA with A25U, U29A, A30G
DNA 1: CAATCTGAATTCCGGTCTCCC
DNA 2: TGGTGGCTACGACGGGATT
B4: CUCGCCU (DNA:RNA)
RNA: B1 RNA with A25C, U29C, A30C, A31U
DNA 1: CAATCTGAATTCCGGTCTCCC
DNA 2: TGGTGGCTACGACGGGATT
B5: UCCACGA (DNA:RNA)
RNA: B1 RNA with A25U, U26C, G28A, U29C, A30G
DNA 1: CAATCTGAATTCCGGTCTCCC
DNA 2: TGGTGGCTACGACGGGATT
B6: ACCUCGU (DNA:RNA)
RNA: B1 RNA with U26C, G28U, U29C, A30G, A31U
DNA 1: CAATCTGAATTCCGGTCTCCC
DNA 2: TGGTGGCTACGACGGGATT
B7: GUUGUCU (DNA:RNA)
RNA: B1 RNA with A25G, C27U, A30C, A31U
DNA 1: CAATCTGAATTCCGGTCTCCC
DNA 2: TGGTGGCTACGACGGGATT
B8: GAGUAUC (DNA:RNA)
RNA: GGGAGACCGGAAUUCAGAUUGUCCGAGUAUCUUAAAUCCCGUCGUAGCCACCA
DNA 1: CAATCTGAATTCCGGTCTCCC
DNA 2: TGGTGGCTACGACGGGATT
B9: ACGUCCG (DNA:RNA)
RNA: B8 RNA with G25A, A26C, A29C, U30C, C31G
DNA 1: CAATCTGAATTCCGGTCTCCC
DNA 2: TGGTGGCTACGACGGGATT
B10: AUUCCAG (DNA:RNA)
RNA: B1 RNA with C27U, G28C, U29C, A31G
DNA 1: CAATCTGAATTCCGGTCTCCC
DNA 2: TGGTGGCTACGACGGGATT
B11: UUCCGAA (DNA:RNA)
RNA: B1 RNA with A25U, G28C, U29G
DNA 1: CAATCTGAATTCCGGTCTCCC
DNA 2: TGGTGGCTACGACGGGATT
B12: UUCGUUA (DNA:RNA)
RNA: B1 RNA with A25U, A30U
DNA 1: CAATCTGAATTCCGGTCTCCC
DNA 2: TGGTGGCTACGACGGGATT
B13: UUUCCCC (DNA:RNA)
RNA: B1 RNA with A25U, C27U, G28C, U29C, A30C, A31C
DNA 1: CAATCTGAATTCCGGTCTCCC
DNA 2: TGGTGGCTACGACGGGATT
B14: CCGAAGA (DNA:RNA)
RNA: B8 RNA with G25C, A26C, U28A, U30G, C31A
DNA 1: CAATCTGAATTCCGGTCTCCC
DNA 2: TGGTGGCTACGACGGGATT
B15: UUGCACA (DNA:RNA)
RNA: B1 RNA with A25U, C27G, G28C, U29A, A30C
DNA 1: CAATCTGAATTCCGGTCTCCC
DNA 2: TGGTGGCTACGACGGGATT
B16: ACCUAUC (DNA:RNA)
RNA: B8 RNA with G25A, A26C, G27C
DNA 1: CAATCTGAATTCCGGTCTCCC
DNA 2: TGGTGGCTACGACGGGATT
B17: UCCUUGG (DNA:RNA)
RNA: B1 RNA with A25U, U26C, G28U, A30G, A31G
DNA 1: CAATCTGAATTCCGGTCTCCC
DNA 2: TGGTGGCTACGACGGGATT
B18: UAGCCCC (DNA:RNA)
RNA: B8 RNA with G25U, U28C, A29C, U30C
DNA 1: CAATCTGAATTCCGGTCTCCC
DNA 2: TGGTGGCTACGACGGGATT
B19: CUCAGAU (DNA:RNA)
RNA: B1 RNA with A25C, G28A, U29G, A31U
DNA 1: CAATCTGAATTCCGGTCTCCC
DNA 2: TGGTGGCTACGACGGGATT
B20: UACACAU (DNA:RNA)
RNA: B1 RNA with A25U, U26A, G28A, U29C, A31U
DNA 1: CAATCTGAATTCCGGTCTCCC
DNA 2: TGGTGGCTACGACGGGATT
B21: UACACCG (DNA:RNA)
RNA: B1 RNA with A25U, U26A, G28A, U29C, A30C, A31G
DNA 1: CAATCTGAATTCCGGTCTCCC
DNA 2: TGGTGGCTACGACGGGATT
B22: UAUUGAG (DNA:RNA)
RNA: B8 RNA with G25U, G27U, A29G, U30A, C31G
DNA 1: CAATCTGAATTCCGGTCTCCC
DNA 2: TGGTGGCTACGACGGGATT
B23: AGAACCU (DNA:RNA)
RNA: B1 RNA with U26G, C27A, G28A, U29C, A30C, A31U
DNA 1: CAATCTGAATTCCGGTCTCCC
DNA 2: TGGTGGCTACGACGGGATT
B24: CCAAUAA (DNA:RNA)
RNA: B1 RNA with A25C, U26C, C27A, G28A
DNA 1: CAATCTGAATTCCGGTCTCCC
DNA 2: TGGTGGCTACGACGGGATT
B25: UAUACGC (DNA:RNA)
RNA: B8 RNA with G25U, G27U, U28A, A29C, U30G
DNA 1: CAATCTGAATTCCGGTCTCCC
DNA 2: TGGTGGCTACGACGGGATT
B26: GGAAGAU (DNA:RNA)
RNA: B1 RNA with A25G, U26G, C27A, G28A, U29G, A31U
DNA 1: CAATCTGAATTCCGGTCTCCC
DNA 2: TGGTGGCTACGACGGGATT
B27: UUUCGUC (DNA:RNA)
RNA: B8 RNA with G25U, A26U, G27U, U28C, A29G
DNA 1: CAATCTGAATTCCGGTCTCCC
DNA 2: TGGTGGCTACGACGGGATT
B28: AUUUCGA (DNA:RNA)
RNA: B1 RNA with C27U, G28U, U29C, A30G
DNA 1: CAATCTGAATTCCGGTCTCCC
DNA 2: TGGTGGCTACGACGGGATT
B29: UCCUUCC (DNA:RNA)
RNA: B1 RNA with A25U, U26C, G28U, A30C, A31C
DNA 1: CAATCTGAATTCCGGTCTCCC
DNA 2: TGGTGGCTACGACGGGATT
B30: CCUGAUA (DNA:RNA)
RNA: B1 RNA with A25C, U26C, C27U, U29A, A30U
DNA 1: CAATCTGAATTCCGGTCTCCC
DNA 2: TGGTGGCTACGACGGGATT
B31: UACCGGC (DNA:RNA)
RNA: B8 RNA with G25U, G27C, U28C, A29G, U30G
DNA 1: CAATCTGAATTCCGGTCTCCC
DNA 2: TGGTGGCTACGACGGGATT

The assay deals with T1, RBFOX1 RRM. In words: EMSA; HiTS-Eq, 1 nM pool, 10 min; buffer printed only for the single-RNA assays: 10 mM Tris pH 7.5, 150 mM NaCl, 3.4 mM EDTA, 0.001% NP-40, 30 C. The conditions noted are these: tags: His6 N-terminal (pET28a); label: 5' 32P. Summed up: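 These values rest on relative association constants, computed from read-count changes of each RNA species versus the control reaction and normalised to the cognate motif. Reads came from free RNA recovered by 8% native PAGE after purified RbFox RRM (wild type or mutant) at increasing concentrations was equilibrated for 10 min in 50 µL with 1 nM of a 5′-radiolabelled pool with 7 randomized nucleotides and DNA-annealed flanks.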
(In general: A gel shift assay detects complexes by their altered migration in electrophoresis.)
Take B1: the binding signal is 0.00185 KA relative to UGCAUGU.
B2: the binding signal is 0.00394 KA relative to UGCAUGU.
The figure for B3 is 0.0113 KA relative to UGCAUGU.
With B4, the binding signal is 0.00873 KA relative to UGCAUGU.
Take B5: the binding signal is 0.00471 KA relative to UGCAUGU.
On to B6, for which the binding signal is 0.00254 KA relative to UGCAUGU.
Regarding B7, the binding signal was 0.018 KA relative to UGCAUGU.
B8: the binding signal was 0.00982 KA relative to UGCAUGU.
For B9, the binding signal is 0.0111 KA relative to UGCAUGU.
For B10, the binding signal is 0.00095 KA relative to UGCAUGU.
With B11, the binding signal is 0.0104 KA relative to UGCAUGU.
Take B12: the binding signal was 0.00765 KA relative to UGCAUGU.
On to B13, for which the binding signal is 0.00464 KA relative to UGCAUGU.
Then B14, with 0.00865 KA relative to UGCAUGU; and B15, with 0.0164 KA relative to UGCAUGU.
B16: the binding signal is 0.0021 KA relative to UGCAUGU.
Turning to B17, the binding signal is 0.0132 KA relative to UGCAUGU.
For the molecule B18, the binding signal was 0.00616 KA relative to UGCAUGU.
For B19, the binding signal was 0.00677 KA relative to UGCAUGU.
As for B20, the binding signal was 0.000378 KA relative to UGCAUGU.
Then B21, with 0.00458 KA relative to UGCAUGU.
B22: the binding signal is 0.0205 KA relative to UGCAUGU.
Take B23: the binding signal is 0.00339 KA relative to UGCAUGU.
With B24, the binding signal is 0.00155 KA relative to UGCAUGU.
As to B25, the binding signal is 0.00682 KA relative to UGCAUGU.
Then B26, with 0.0142 KA relative to UGCAUGU.
In the case of B27, the binding signal was 0.0145 KA relative to UGCAUGU.
B28: the binding signal was 0.00963 KA relative to UGCAUGU.
In the case of B29, the binding signal was 0.00163 KA relative to UGCAUGU.
On to B30, for which the binding signal was 0.00741 KA relative to UGCAUGU.
With B31, the binding signal is 0.00859 KA relative to UGCAUGU.
